{"source": "patent US20220290196A1", "about": "“GENETICALLY ENGINEERED MICROBES AND BIOSYNTHETIC METHODS” (The Regents of the University of California, priority 2019, published 2022)", "proteins": {"B1": {"name": "Saccharomonospora sp. CNQ-490 Tar13 (tryptophan 2,3-dioxygenase), wild type, SEQ ID NO: 1 (expressed SEQ ID NO: 2) (Saccharomonospora piscinae) (protein)", "chain": "MTERTATRTEPAYGEILRLDELLELACVNDEADRALFLSAHQACEIWFAVVLRHLEDVTDALSLDDGATAAELLERLPRIITVIIEHFEVLGTLKPEAFDRIRADLGSSSGFQSVQYREIEYLCGARDTRFLNTAGFRDRDRRRLRERLAKRSLSNVFLEYRGRAGDRDACRISDALHEFDDSVRALRLRHAGIAELFLGSIPGTAGTAGAAYLRRSASRTLFPELFDRRASGTGG"}}, "substrate": "N[C@@H](Cc1c[nH]c2cc(Cl)ccc12)C(=O)O", "assay": "Kinetic characterization of Tar13-catalyzed oxidation of L-6-Cl-tryptophan", "assay_type": "biochemical, Saccharomonospora sp. CNQ-490", "details": "other: Tar13, L-6-Cl-Trp, 30° C., pH 8.0", "protocol": "To determine kinetic parameters for Tar13-catalyzed oxidation of L-6-Cl-tryptophan, the following reaction conditions were used:\nBuffer: up to 50 μL (50 mM Tris, 500 mM NaCl 10% glycerol, pH 8.0)\nIn a separate Eppendorf tube premix:\nThe enzyme mixture was added to the substrate solution to start the reactions. The reactions were incubated at 30° C. for 5, 10, 15, 30 min, after which the assays were quenched by addition of equal volume of HPLC grade methanol and frozen at −70° C. till further analysis by HPLC. All assays were performed in triplicates for each substrate concentration and every time point. In parallel, for each time point and substrate concentration, assays with no added enzyme were used as controls. Prior HPLC analysis (method 5), L-tryptophan was added to the quenched reaction mixtures as an internal standard for quantification.\nProduct formation was quantitated by calculating decrease of the area of the remaining substrate in comparison to the substrate peak area in the control with no enzyme added, and the ratio of peak areas to internal standard were fitted into a calibration curve to determine product concentrations.", "note": "A number of entries come with more than one value. Only these are listed. There may be further records. Values given together seem to repeat one measurement (runs, samples, wells or individuals)."}
{"protein": "B1", "values": [{"measurement": "Km", "value": "112.3±23.7 μM and 12.3 μM"}]}
